Assay results as given in US20240124575A1 (SIMCERE ZAIMING PHARMACEUTICAL, published 2024).

How the values were obtained:
monkey CD33 protein [1] = biological target: T1, monkey CD33 protein (monkey); assay: ELISA, coated monkey CD33, antibody 0.1 nM
T1 construct: The printed catalogue numbers for murine and monkey CD33 may be interchanged; also called monkey CD33-His protein

[2] = biological target: T2, monkey CD33 on HEK293T-monkey CD33 cells (monkey); assay: FACS on HEK293T-monkey CD33 cells
T2 construct: whole, on cells

monkey CD33 protein [3] = biological target: T1, monkey CD33 protein; assay: ELISA, coated monkey CD33, antibody 10 nM
monkey CD33 protein [4] = biological target: T1, monkey CD33 protein; assay: ELISA, coated monkey CD33, antibody 0.001 nM
monkey CD33 protein [5] = biological target: T1, monkey CD33 protein; assay: ELISA, coated monkey CD33, antibody 100 nM
monkey CD33 protein [6] = biological target: T1, monkey CD33 protein; assay: ELISA, coated monkey CD33, antibody 1 nM
monkey CD33 protein [7] = biological target: T1, monkey CD33 protein; assay: SPR (Biacore), antibody captured on Protein A chip, monkey CD33 protein as analyte
monkey CD33 protein [8] = biological target: T1, monkey CD33 protein; assay: ELISA, coated monkey CD33, antibody 0.01 nM
monkey CD33 protein [9] = biological target: T1, monkey CD33 protein; assay: ELISA, coated monkey CD33, antibody 0.0001 nM
human CD33-His = biological target: T3, human CD33-His (human, UniProt P20138 18-259); assay: SPR (Biacore), antibody captured on Protein A chip, human CD33-his as analyte
T3 construct: range 18-259; Bought protein; also called human CD33-his protein; hCD33-his; not shown: His tag

B1: S006-NB146-17 (Fc fusion)
chain: QVQLVESGGGLVQSGGSLRLSCAASGSIFTSDDMDYAMGWYRQASGKQREWVATITSDEDTNYGDSVKGRFTISRDSAKNTAFLQMNTLKPEDTAVYYCFANVRSDRSSLYRNYWGQGTQVTVSS[letters of human IgG1 Fc with changes left out]
notes: also called S006-NB146-17 VHH-Fc
Monkey CD33 protein [1]
  OD450: 0.43 OD450
[2]
  EC50: 4.02 nM
  Max MFI: 2290 MFI
Monkey CD33 protein [3]
  OD450: 3.06 OD450
Monkey CD33 protein [4]
  OD450: 0.06 OD450
Monkey CD33 protein [5]
  OD450: 3.28 OD450
Monkey CD33 protein [6]
  OD450: 2.05 OD450
Monkey CD33 protein [7]
  Kd: 1.13 nM
  koff: 0.000128 s⁻¹
  kon: 113000 M⁻¹ s⁻¹
Monkey CD33 protein [8]
  OD450: 0.07 OD450
Monkey CD33 protein [9]
  OD450: 0.05 OD450

B2: S006-NB146-3 (Fc fusion)
chain: EVQVVESGGGLVQSGGSLRLSCAASGAIFTSNAMDYAMGWYRQVSGKQREWVATITSDDDTNYGDSAKGRFTISRDSAKNTAYLQMNSLKPEDTAVYYCFANVRSDRSTLYRNYWGQGTQVTVSS[letters of human IgG1 Fc with changes left out]
notes: also called S006-NB146-3 VHH-Fc
Monkey CD33 protein [1]
  OD450: 0.33 OD450
Human CD33-His
  Kd: 2.52 nM
  koff: 6.28e-06 s⁻¹
  kon: 2490 M⁻¹ s⁻¹
[2]
  EC50: 4.71 nM
  Max MFI: 2310 MFI
Monkey CD33 protein [3]
  OD450: 2.33 OD450
Monkey CD33 protein [4]
  OD450: 0.06 OD450
Monkey CD33 protein [5]
  OD450: 3.33 OD450
Monkey CD33 protein [6]
  OD450: 1.38 OD450
Monkey CD33 protein [7]
  Kd: 15.1 nM
  koff: 0.000163 s⁻¹
  kon: 10800 M⁻¹ s⁻¹
Monkey CD33 protein [8]
  OD450: 0.11 OD450
Monkey CD33 protein [9]
  OD450: 0.06 OD450

B3: S006-NB146-40 (Fc fusion)
chain: QVQLVESGGGLVQSGGSLRLSCAASGSIFTSNDMDYAMGWYRQVSGKQREWVATITSDEDTNYGDSVKGRFTISRDSAKNTAYLQMNSLKPEDTAVYYCFANLRSDRSTLYRNYWGQGTQVTVSS[letters of human IgG1 Fc with changes left out]
notes: also called S006-NB146-40 VHH-Fc
Monkey CD33 protein [1]
  OD450: 0.34 OD450
Human CD33-His
  Kd: 8.39 nM
  koff: 1.23e-05 s⁻¹
  kon: 1460 M⁻¹ s⁻¹
[2]
  EC50: 4.48 nM
  Max MFI: 2260 MFI
Monkey CD33 protein [3]
  OD450: 2.4 OD450
Monkey CD33 protein [4]
  OD450: 0.06 OD450
Monkey CD33 protein [5]
  OD450: 2.78 OD450
Monkey CD33 protein [6]
  OD450: 2 OD450
Monkey CD33 protein [7]
  Kd: 183 nM
  koff: 0.000256 s⁻¹
  kon: 1390 M⁻¹ s⁻¹
Monkey CD33 protein [8]
  OD450: 0.06 OD450
Monkey CD33 protein [9]
  OD450: 0.05 OD450

B4: S006-NB146-20 (Fc fusion)
chain: EVQLVESGGGSVQAGGSLRLSCGTPQSWFRLSSYVMNWYRQAPGKRRELVAEITQDDTTNYTPSVKGRFAISRDNANNTVHLQMNSLKPEDTAVYYCNTIQIWGQGTQVTVSS[letters of human IgG1 Fc with changes left out]
notes: also called S006-NB146-20 VHH-Fc
Monkey CD33 protein [1]
  OD450: 0.66 OD450
Human CD33-His
  Kd: 0.917 nM
  koff: 0.000377 s⁻¹
  kon: 412000 M⁻¹ s⁻¹
[2]
  EC50: 2.79 nM
  Max MFI: 2160 MFI
Monkey CD33 protein [3]
  OD450: 2.92 OD450
Monkey CD33 protein [4]
  OD450: 0.07 OD450
Monkey CD33 protein [5]
  OD450: 3.05 OD450
Monkey CD33 protein [6]
  OD450: 2.23 OD450
Monkey CD33 protein [7]
  Kd: 0.548 nM
  koff: 0.000495 s⁻¹
  kon: 902000 M⁻¹ s⁻¹
Monkey CD33 protein [8]
  OD450: 0.11 OD450
Monkey CD33 protein [9]
  OD450: 0.06 OD450

B5: S006-NB146-39 (Fc fusion)
chain: EVQLVESGGGLVQPGESLRLSCTAPGIILDYYPIGWFRQAPGKEREGVAFITNSDDSTIYTNYADSVKGRFTISREKNTVYLQMNSLKPEDTALYYCAARSTYIVGRNENALNSSDYDYWGQGTQVTVSS[letters of human IgG1 Fc with changes left out]
notes: also called S006-NB146-39 VHH-Fc
Monkey CD33 protein [1]
  OD450: 0.21 OD450
Human CD33-His
  Kd: 0.165 nM
  koff: 2.95e-05 s⁻¹
  kon: 179000 M⁻¹ s⁻¹
[2]
  EC50: 5.92 nM
  Max MFI: 2180 MFI
Monkey CD33 protein [3]
  OD450: 2.89 OD450
Monkey CD33 protein [4]
  OD450: 0.06 OD450
Monkey CD33 protein [5]
  OD450: 3.09 OD450
Monkey CD33 protein [6]
  OD450: 1.95 OD450
Monkey CD33 protein [7]
  Kd: 0.118 nM
  koff: 6.98e-05 s⁻¹
  kon: 590000 M⁻¹ s⁻¹
Monkey CD33 protein [8]
  OD450: 0.07 OD450
Monkey CD33 protein [9]
  OD450: 0.06 OD450

B6: S006-NB146-1 (Fc fusion)
chain: EVQVVESGGGLVQAGGSLTLSCAASGNIENIQVMGWYRQAPGSQRALVAQINLSGLESTNYLDSVKERFTISRDYTKNAVYLRMNRLEPEDTAVYYCNARSYYGQYDYWGQGTQVTVSS[letters of human IgG1 Fc with changes left out]
notes: also called S006-NB146-1 VHH-Fc
Monkey CD33 protein [1]
  OD450: 0.63 OD450
[2]
  EC50: 237 nM
  Max MFI: 1480 MFI
Monkey CD33 protein [3]
  OD450: 2.78 OD450
Monkey CD33 protein [4]
  OD450: 0.1 OD450
Monkey CD33 protein [5]
  OD450: 3.22 OD450
Monkey CD33 protein [6]
  OD450: 2.15 OD450
Monkey CD33 protein [7]
  Kd: 1.08 nM
  koff: 0.000268 s⁻¹
  kon: 249000 M⁻¹ s⁻¹
Monkey CD33 protein [8]
  OD450: 0.16 OD450
Monkey CD33 protein [9]
  OD450: 0.1 OD450

B7: S006-NB146-132 (Fc fusion)
chain: QVQLVESGGGLVQAGGSLRLSCAASGGTFVINAAWYHQAPGKQRELVANISYGGSTNYADRVAGRFAISRDNAKNTVYLQMNSLKPEDTGVYYCRLDPGLALNNRPLYYWGQGTQVTVSS[letters of human IgG1 Fc with changes left out]
Monkey CD33 protein [1]
  OD450: 1.09 OD450
[2]
  EC50: 7.61 nM
  Max MFI: 2130 MFI
Monkey CD33 protein [3]
  OD450: 2.93 OD450
Monkey CD33 protein [4]
  OD450: 0.14 OD450
Monkey CD33 protein [5]
  OD450: 3.27 OD450
Monkey CD33 protein [6]
  OD450: 2.16 OD450
Monkey CD33 protein [7]
  Kd: 1.67 nM
  koff: 0.000362 s⁻¹
  kon: 216000 M⁻¹ s⁻¹
Monkey CD33 protein [8]
  OD450: 0.27 OD450
Monkey CD33 protein [9]
  OD450: 0.11 OD450

B8: S006-NB146-60 (Fc fusion)
chain: EVQLVESGGGLVQAGGSLRLSCVASRSTSSLSLMSWHRQAPGEQRELVASITSGGKANYVDSVKDRFIMTRDDAKNTVYLQMNSLKPEDTAVYYCHAYDRAGTASGFGAAWGQGTQVTVSS[letters of human IgG1 Fc with changes left out]
notes: also called S006-NB146-60 VHH-Fc
Monkey CD33 protein [1]
  OD450: 0.05 OD450
[2]
  Max MFI: 104 MFI
Monkey CD33 protein [3]
  OD450: 0.06 OD450
Monkey CD33 protein [4]
  OD450: 0.05 OD450
Monkey CD33 protein [5]
  OD450: 0.06 OD450
Monkey CD33 protein [6]
  OD450: 0.05 OD450
Monkey CD33 protein [8]
  OD450: 0.05 OD450
Monkey CD33 protein [9]
  OD450: 0.05 OD450

B9: S006-NB147-225 (Fc fusion)
chain: EVQVVESGGGSVQPGGSLRLSCVASGFTFSNYAMSWVRQTPKKGLEWVAEINSGGDNTYYAYFVKGRFTISRDNAKNTLYLQMNSLKPEDTGTYYCAREEENAGTILQGQGTQVTVSS[letters of human IgG1 Fc with changes left out]
Monkey CD33 protein [1]
  OD450: 0.06 OD450
[2]
  Max MFI: 86 MFI
Monkey CD33 protein [3]
  OD450: 0.06 OD450
Monkey CD33 protein [4]
  OD450: 0.06 OD450
Monkey CD33 protein [5]
  OD450: 0.07 OD450
Monkey CD33 protein [6]
  OD450: 0.05 OD450
Monkey CD33 protein [8]
  OD450: 0.06 OD450
Monkey CD33 protein [9]
  OD450: 0.05 OD450
